Results published in article PMC3798263.
Results are given in words; binding and its absence hold for the method and conditions named. For part of these data: In cells and extracts the contact can be indirect. Some entries that bind do so weakly or less than the wild type. Where a sequence is shown, tags or fusion partners need not be part of it.

T1: HOS5 (High Osmotic Stress Gene Expression 5), full length, yeast two-hybrid fusion (Arabidopsis) (UniProt Q8W4B1)
T1 sequence: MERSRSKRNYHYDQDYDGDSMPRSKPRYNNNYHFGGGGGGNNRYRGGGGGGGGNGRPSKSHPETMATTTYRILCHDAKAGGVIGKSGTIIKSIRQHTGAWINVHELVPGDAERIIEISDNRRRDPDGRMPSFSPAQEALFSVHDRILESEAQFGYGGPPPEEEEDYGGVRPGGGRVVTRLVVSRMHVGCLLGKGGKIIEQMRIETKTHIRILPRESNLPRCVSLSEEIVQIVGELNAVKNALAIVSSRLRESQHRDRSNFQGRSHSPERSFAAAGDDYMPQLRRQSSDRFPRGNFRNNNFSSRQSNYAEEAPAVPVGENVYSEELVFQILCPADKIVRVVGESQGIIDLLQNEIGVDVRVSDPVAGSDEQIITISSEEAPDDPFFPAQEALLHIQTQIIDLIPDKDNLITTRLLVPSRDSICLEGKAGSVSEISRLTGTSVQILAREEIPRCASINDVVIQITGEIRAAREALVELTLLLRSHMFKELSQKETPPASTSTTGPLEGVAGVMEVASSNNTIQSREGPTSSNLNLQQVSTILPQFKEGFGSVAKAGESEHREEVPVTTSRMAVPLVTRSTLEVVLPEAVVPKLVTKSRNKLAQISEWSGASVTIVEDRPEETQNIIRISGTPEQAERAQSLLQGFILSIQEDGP

T2: HOS5-FLAG expressed in tobacco (N. benthamiana) leaves (Arabidopsis) (UniProt Q8W4B1)
T2 sequence: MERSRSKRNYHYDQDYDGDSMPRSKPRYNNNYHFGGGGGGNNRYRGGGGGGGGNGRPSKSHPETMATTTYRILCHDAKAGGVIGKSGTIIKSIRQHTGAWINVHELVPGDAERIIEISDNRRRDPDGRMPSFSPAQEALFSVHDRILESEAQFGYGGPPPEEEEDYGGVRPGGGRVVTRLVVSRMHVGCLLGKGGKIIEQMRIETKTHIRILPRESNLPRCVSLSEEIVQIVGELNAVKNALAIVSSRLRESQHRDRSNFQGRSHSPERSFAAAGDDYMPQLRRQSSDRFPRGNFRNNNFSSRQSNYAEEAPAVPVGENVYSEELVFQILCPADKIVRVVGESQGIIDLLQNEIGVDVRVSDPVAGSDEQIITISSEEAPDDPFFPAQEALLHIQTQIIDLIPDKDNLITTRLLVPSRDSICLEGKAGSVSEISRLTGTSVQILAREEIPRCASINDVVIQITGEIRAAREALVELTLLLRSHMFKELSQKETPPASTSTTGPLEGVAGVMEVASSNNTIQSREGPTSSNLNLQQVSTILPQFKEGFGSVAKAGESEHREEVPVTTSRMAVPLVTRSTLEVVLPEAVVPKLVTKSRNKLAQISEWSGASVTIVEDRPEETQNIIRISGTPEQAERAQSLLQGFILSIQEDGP

B1: hos5-1 mutant HOS5 (Gly233 to Ser), yeast two-hybrid fusion (protein, UniProt Q8W4B1 1-652)
chain: MERSRSKRNYHYDQDYDGDSMPRSKPRYNNNYHFGGGGGGNNRYRGGGGGGGGNGRPSKSHPETMATTTYRILCHDAKAGGVIGKSGTIIKSIRQHTGAWINVHELVPGDAERIIEISDNRRRDPDGRMPSFSPAQEALFSVHDRILESEAQFGYGGPPPEEEEDYGGVRPGGGRVVTRLVVSRMHVGCLLGKGGKIIEQMRIETKTHIRILPRESNLPRCVSLSEEIVQIVSELNAVKNALAIVSSRLRESQHRDRSNFQGRSHSPERSFAAAGDDYMPQLRRQSSDRFPRGNFRNNNFSSRQSNYAEEAPAVPVGENVYSEELVFQILCPADKIVRVVGESQGIIDLLQNEIGVDVRVSDPVAGSDEQIITISSEEAPDDPFFPAQEALLHIQTQIIDLIPDKDNLITTRLLVPSRDSICLEGKAGSVSEISRLTGTSVQILAREEIPRCASINDVVIQITGEIRAAREALVELTLLLRSHMFKELSQKETPPASTSTTGPLEGVAGVMEVASSNNTIQSREGPTSSNLNLQQVSTILPQFKEGFGSVAKAGESEHREEVPVTTSRMAVPLVTRSTLEVVLPEAVVPKLVTKSRNKLAQISEWSGASVTIVEDRPEETQNIIRISGTPEQAERAQSLLQGFILSIQEDGP
B2: RS40-Myc expressed in tobacco (N. benthamiana) leaves (protein, UniProt P92965 1-350)
chain: MKPVFCGNFEYDAREGDLERLFRKYGKVERVDMKAGFAFVYMEDERDAEDAIRALDRFEFGRKGRRLRVEWTKSERGGDKRSGGGSRRSSSSMRPSKTLFVINFDADNTRTRDLEKHFEPYGKIVNVRIRRNFAFIQYEAQEDATRALDASNNSKLMDKVISVEYAVKDDDARGNGHSPERRRDRSPERRRRSPSPYKRERGSPDYGRGASPVAAYRKERTSPDYGRRRSPSPYKKSRRGSPEYGRDRRGNDSPRRRERVASPTKYSRSPNNKRERMSPNHSPFKKESPRNGVGEVESPIERRERSRSSPENGQVESPGSIGRRDSDGGYDGAESPMQKSRSPRSPPADE
B3: RS41-Myc expressed in tobacco (N. benthamiana) leaves (protein, UniProt P92966 1-356)
chain: MKPVFCGNFEYDARESDLERLFRKYGKVERVDMKAGFAFVYMEDERDAEDAIRALDRFEYGRTGRRLRVEWTKNDRGGAGRSGGSRRSSSGLRPSKTLFVINFDAQNTRTRDLERHFEPYGKIVNVRIRRNFAFIQYEAQEDATRALDATNSSKLMDKVISVEYAVKDDDSRGNGYSPERRRDRSPDRRRRSPSPYRRERGSPDYGRGASPVAHKRERTSPDYGRGRRSPSPYKRARLSPDYKRDDRRRERVASPENGAVRNRSPRKGRGESRSPPPYEKRRESRSPPPYEKRRESRSPPPYEKRRERSRSRSKSSPENGQVESPGQIMEVEAGRGYDGADSPIRESPSRSPPAEE

How the values were obtained:
[1] = molecular target: T1, HOS5 (High Osmotic Stress Gene Expression 5), full length, yeast two-hybrid fusion (Arabidopsis); assay: two-hybrid; pairwise in yeast strain AH109: HOS5 in pBD (pGBK), FRY2 in pAD (pGAD); deletion constructs and hos5-1 against the full-length partner; growth on -TLHA medium plus X-alpha-Gal, -TL as transformation control
[2] = molecular target: T2, HOS5-FLAG expressed in tobacco (N. benthamiana) leaves (Arabidopsis); assay: co-IP; HOS5-FLAG with RS40-Myc or RS41-Myc expressed in pairs in N. benthamiana leaves; precipitated with anti-FLAG M2 beads (normal IgG as control), blot with anti-Myc

Binder | binding [1] | binding [2]
B1 | binds | –
B2 | – | binds
B3 | – | binds
